Several values for one entry are separate records, joined by “and”; a condition that tells them apart may be missing. Equal entries are not always repeated. The full ranking holds about 110,000 compounds; the median of “z-score” is about -0.1, and the highest 2% start at about 2. Some of the results follow. Activity calls are given as the source filed them.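 Rule for the calls: active = z-score in the third read window above 3 or below -3; inactive = the rest.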 Residues, ends and D or L forms follow the SMILES beside them. *: point of attachment. Boc = CC(C)(C)OC(=O)*

The assay concerns the target Metabotropic glutamate receptor 8 (Rattus norvegicus) (UniProt P70579). Kind of assay: rat mGluR8 modulators via GIRK flux, primary screen, cell-based, thallium flux, HTS (AID 488969). The note with it: HEK293 rat mGluR8, GIRK (G protein-gated inwardly rectifying potassium channel) thallium flux, FluoZin2; at 10 µM; stronger effect = higher value; submaximal glutamate (EC20) added with thallium.
Chain of UniProt P70579 (P70579 whole entry, looked up): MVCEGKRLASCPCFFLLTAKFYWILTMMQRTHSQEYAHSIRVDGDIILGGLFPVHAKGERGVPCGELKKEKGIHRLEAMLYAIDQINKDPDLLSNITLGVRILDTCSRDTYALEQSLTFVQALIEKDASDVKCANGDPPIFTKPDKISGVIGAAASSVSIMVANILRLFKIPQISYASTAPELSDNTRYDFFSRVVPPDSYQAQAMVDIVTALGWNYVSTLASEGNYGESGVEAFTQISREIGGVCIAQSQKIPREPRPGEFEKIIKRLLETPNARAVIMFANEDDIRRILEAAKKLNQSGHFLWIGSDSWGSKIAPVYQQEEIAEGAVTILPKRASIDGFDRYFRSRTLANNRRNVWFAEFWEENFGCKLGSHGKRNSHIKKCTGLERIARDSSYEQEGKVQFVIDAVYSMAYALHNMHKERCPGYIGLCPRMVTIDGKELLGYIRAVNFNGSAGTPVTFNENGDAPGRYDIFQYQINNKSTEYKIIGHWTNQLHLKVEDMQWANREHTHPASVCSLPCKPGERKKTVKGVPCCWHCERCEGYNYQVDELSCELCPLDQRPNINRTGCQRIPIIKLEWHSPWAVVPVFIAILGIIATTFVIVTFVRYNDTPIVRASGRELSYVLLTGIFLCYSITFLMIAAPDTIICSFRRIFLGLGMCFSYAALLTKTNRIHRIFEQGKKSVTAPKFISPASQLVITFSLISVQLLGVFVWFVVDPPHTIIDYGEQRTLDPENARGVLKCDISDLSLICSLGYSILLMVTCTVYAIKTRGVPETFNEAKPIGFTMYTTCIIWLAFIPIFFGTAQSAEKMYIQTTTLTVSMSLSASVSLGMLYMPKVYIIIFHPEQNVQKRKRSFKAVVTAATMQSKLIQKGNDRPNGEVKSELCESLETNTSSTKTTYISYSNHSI
Consider `Nc1nc(CN2CCCCCC2)nc(Nc2ccc(F)cc2)n1`, for which the z-score is -0.88.
The result for `CCN(c1ccc(NC(=O)COC(=O)c2ccc(C)c(S(=O)(=O)N3CCOCC3)c2)cc1)C(C)C` reads -0.29; that for `CC1(C)CC(=O)c2cc(C(=O)O)c(=O)n(-c3ccccc3)c2C1`, 0.711; that for `CSCCC(NC(=O)OC(C)(C)C)C(=O)NC(C(=O)NC(CC(C)C)C(N)=O)C(C)C` (stereo not drawn) (Boc-Met-Val-Leu-NH2; configuration not given here), -0.958.
`COc1ccc(CC(=O)Nc2ccc(S(=O)(=O)Nc3cc(C)on3)cc2)cc1` displayed a z-score of -0.00735.
The result for `COc1cccc(/C=C2\C(=O)C(=O)c3ccccc32)c1` reads 0.201.
For `Cc1ccc2nc(NC(=O)C3CCCN(S(=O)(=O)c4cnc[nH]4)C3)sc2c1` (centres undefined) the value was 0.151; for `COC(=O)c1cc2c(ccn2-c2ccc(F)cc2)n1CC(C)C`, 0.033; for `C=CCn1c(=N)n(CC(O)c2ccco2)c2ccccc21` (centres undefined), -0.0946.
For `O=C(O)c1ccc2cc[nH]c2c1` the value was 0.693; for `Cc1cc(NC(=O)Cn2nc(C(F)(F)F)c3c2CCC3)no1`, -0.301.
The compound `Cc1ccc(C)c(OCC(=O)Nc2nc3ccc([N+](=O)[O-])cc3s2)c1` gave a z-score of 0.0186.
The result for `Cc1c(C(=O)NCC2CCCO2)sc2nc(-c3ccccc3)cn12` (centres undefined) reads -0.72; that for `Cc1ccc(OC2=NS(=O)(=O)c3ccccc32)cc1`, 0.36.
For `CC(C)C(c1nnnn1Cc1cccs1)N1CCN(C2CCCC2)CC1` (centres undefined) the value was 0.331.
Regarding `CN1C(=O)/C(=N\OC(=O)c2cccc3ccccc23)c2ccccc21`, the z-score was -0.497.
The result for `CCOC(=O)C1CCN(C(=O)/C=C/c2ccccc2OC)CC1` reads -1.49; that for `CC(C)[C@H](NC(=O)NC1CCCC1)C(=O)O`, -0.243.
For `NNC(=S)NCc1ccc2c(c1)OCO2` the value was 0.0642; for `CCCOc1cccc(C2/C(=C(/O)c3ccc(OC)cc3)C(=O)C(=O)N2CCN(C)C)c1` (centres undefined), -0.278; for `Clc1ccc(-c2nnc(SCc3nc4ccccc4s3)o2)cc1`, -0.00869.
For `Cc1ccc(C)c(S(=O)(=O)NCc2ccc(C(=O)NCc3ccccn3)cc2)c1` the value was 0.0923.
`O=C(c1ccccc1)c1c[nH]c(C(=O)NCCCn2ccnc2)c1`: the z-score was -0.0473.
The result for `CC1(C)OC(=O)C(=CNn2cnc3ccccc3c2=O)C(=O)O1` reads 0.581.
In turn, `CCOC(=O)Cc1[nH]nc2c1C(c1ccoc1)C(C#N)=C(N)O2` (centres undefined) came in with a z-score of -0.03.
The result for `O=C(Nc1nc(-c2ccccc2)cs1)NC1CCCCC1` reads -0.0613.
The result for `COc1ccc(-n2ccnc2SCC(=O)NCc2ccc3c(c2)OCO3)cc1` reads -0.165.
The compound `Cc1cc2c(ncn2C(C)C)c(N)c1C` registered a z-score of -0.0549.
`COCCN(C(=O)CSc1nnc(Nc2ccccc2F)s1)c1c(N)n(Cc2ccccc2)c(=O)[nH]c1=O` came in with a z-score of -0.348.
For `CCc1nnc(NC(=O)CSc2nnc(CSc3nc(C)cc(C)n3)n2C)s1` the value was -0.55.
For `Cc1cc(C)c(NC(=O)CS(=O)CC(=O)N2CCN(c3ccc(F)cc3)CC2)c(C)c1` (centres undefined) the value was 0.349; for `COc1ccc(C)cc1NC(=O)NCCC1=CCCCC1`, active: 10.6; for `CC(C)C(=O)NC(=S)Nc1ccc(S(=O)(=O)N2CCN(C)CC2)cc1`, 0.0813.
The result for `Cc1cccc(NC(=O)CCc2ccc(C)o2)c1` reads -1.35; that for `CCOc1cc2c(cc1OCC)C(c1ccccc1)N(c1ccccc1)C(=O)C2` (centres undefined), -0.705.
The compound `O=C(CCCCCNC(=O)c1ccccc1)N/N=C/c1ccc(O)cc1O` showed a z-score of -0.269.
The result for `COc1ccc(-c2csc3nc(C)n(-n4cccc4)c(=O)c23)cc1` reads -2.01; that for `COc1ccc(NC(=O)C2=C(C)NC(=O)NC2c2cccc(OC)c2OC)c(OC)c1` (centres undefined), -0.12.
For `CCOc1ccc(S(=O)(=O)N2CCN(c3ccc(C)cc3C)CC2)cc1` the value was -0.178.
The result for `CC1CCc2c(sc(NS(=O)(=O)c3ccccc3)c2C(=O)OC(C)C)C1` (centres undefined) reads active: 8.13; that for `Cc1cc(C)nc(SCCn2c(N(C)Cc3ccccc3)nc3c2c(=O)n(C)c(=O)n3C)n1`, -0.583; that for `CCOC(=O)Cc1csc(SCc2cc(=O)oc3cc(O)ccc23)n1`, -0.133.
The compound `Cc1nc2ccccc2c2oc(C(=O)NC3CC3)cc12` showed a z-score of 0.106.
For `O=C1Nc2ccc(S(=O)(=O)NCc3ccco3)c3cccc1c23` the value was 0.198.
The compound `c1ccc(-c2noc(-c3ccccc3-c3ccccc3)n2)cc1` had a z-score of -0.531.
The result for `CCN(CC(O)CON=C1c2ccccc2-c2ccccc21)S(=O)(=O)c1ccc(Cl)cc1` (centres undefined) reads 0.138; that for `CCOc1ccc(/C=N/OCC(=O)Nc2ccc(OCc3ccccc3)cc2)cc1OC`, -0.11; that for `O=C(NCc1ccco1)c1cc2sccc2n1Cc1ccccc1`, -1.39.
For `CCOC(=O)CC(N)c1ccc(OC)cc1` (centres undefined) the value was -0.127; for `COc1ccc(COC(=O)c2ccc(N3CCCC3=O)cc2)cc1F`, -0.423.
The result for `Cc1ccccc1/C=C1\CCCc2ccccc2C1=O` reads 0.174; that for `Cn1cnnc1SCCn1c(N2CCCCC2)nc2c1c(=O)[nH]c(=O)n2C`, -0.341.
For `N=c1c2c(-c3ccccc3)c(-c3ccccc3)n(Cc3ccco3)c2ncn1CCN1CCOCC1`, the z-score was -0.19.
`CCN(CC)CCCN1C(=O)C(O)=C(C(=O)c2ccco2)C1c1ccc(C)o1` (centres undefined): the z-score was 0.0674.
The result for `O=C(NC1=NCCS1)C12CC3CC(C1)CC(C(=O)NC1=NCCS1)(C3)C2` reads -0.156; that for `CCN(CC)CCCNC(=O)c1cc(-c2ccc(Cl)c(Cl)c2)on1`, active: 5.37; that for `COc1ccc(CNC(=O)c2nnn(Cc3ccc(OC)cc3)c2N)cc1`, 0.097.
For `Cc1ccc2c(c1)cc1c(=O)[nH]ncn12` the value was -0.199.
The compound `CN(C)CCCNC(=O)c1ccc2[nH]c3ccccc3c2c1` came in with a z-score of 1.63.
For `Cc1ccc(-c2nc3ccccc3c(=O)n2NC(=S)N(C)C)cc1` the value was -0.153.
`CCOc1ccc(Nc2cc(=O)oc3ccccc23)cc1` yielded a z-score of -0.368.
The result for `Cc1nn(-c2ccccc2)c(/N=C/c2ccccc2O)c1-c1ccccc1` reads -0.4; that for `Cc1cc(=O)oc2c(C(=O)/C=C/c3ccccc3)c(O)ccc12`, -0.495; that for `CCCCn1nnnc1SCC(=O)N1CCCC1`, -0.385.
`CN1CC2([N+](=O)[O-])CC=C(Oc3ccccc3)C([N+](=O)[O-])(C1)C2` (centres undefined) yielded a z-score of -0.0972.
The result for `N#Cc1cc(-c2ccc(Cl)cc2)cnc1Sc1ccccc1` reads 0.0512; that for `Nc1nc(-c2ccccc2)c(N=Nc2ccc(Cl)cc2)s1`, 0.141.
For `CN=C(Nc1cc(C)nn1-c1ccccc1)c1ccc(F)cc1` the value was -1.36.
The result for `COC(=O)Cn1c(=NC(=O)c2ccc([N+](=O)[O-])s2)sc2cc(Br)ccc21` reads 0.0339.
In turn, `CCN(CC)Cc1c(C(=O)OC)nnn1-c1nonc1N` displayed a z-score of 0.958.
For `COc1ccc(Cl)cc1N/C(N)=N/c1nc(CSc2ccc(C)cc2)cc(=O)[nH]1` the value was -0.303; for `Cc1cccc(C)c1NC(=O)N1CCC(N2CCCCC2)CC1`, -0.792; for `CN(C)CCOC(=O)C1(c2ccccc2)CCOCC1`, -0.0616 and 0.489.
For `Cc1ccc(-n2c(N)c(C(=O)Nc3c(C)n(C)n(-c4ccccc4)c3=O)c3nc4ccccc4nc32)cc1C` the value was -1.41; for `COc1ccc(-c2nc(-c3cccc([N+](=O)[O-])c3O)cc(=O)o2)cc1OC`, 1.13.
For `COc1cccc(C2C(C#N)=C(N)OC3=C2C(=O)CCC3)c1OC(=O)c1ccco1` (centres undefined) the value was -0.941; for `Cc1cccc2cc(CN(Cc3ccc(F)cc3)Cc3nnnn3C3CCCC3)c(=O)[nH]c12`, -0.483; for `N=C1SC(c2ccccc2)C(=O)N1c1ncc(Cc2ccccc2)s1` (centres undefined), 0.173.
In turn, `CCCCN(CCCNC(=O)C1CCCN(S(=O)(=O)CC)C1)Cc1ccccc1` (centres undefined) returned a z-score of 0.123.
The result for `CCOC(=O)N1CCN(c2ncnc3c2cnn3-c2ccc(Cl)cc2)CC1` reads -0.0512.
`COc1ccc(Nc2ncnc3c2cnn3Cc2ccc(C)cc2)cc1` displayed a z-score of 0.267.
The result for `CCOC(=O)CN1C(=O)CN(c2ccc(C)c(C)c2)C1=O` reads -0.226; that for `O=c1n(-c2ccccc2)c(=O)n2n1CCC2`, -1.02.
The result for `Cc1cccc(-c2cc3nc(C)cc(NCCCN(C)C)n3n2)c1` reads 0.996.
The result for `Cc1ccc(C2CC(=O)c3cnc(NC(=O)c4ccco4)nc3C2)cc1` (centres undefined) reads -0.398; that for `O=C(CSc1nnc2sc3ccccc3n12)NCc1ccco1`, 0.295.
Regarding `CCOC(=O)c1cc2occc2n1CC(=O)NC1CCCCC1C` (centres undefined), the z-score is -0.179.
For `Oc1ccc(N2CCN(C(c3ccccn3)c3nnnn3C3CCCC3)CC2)cc1` (centres undefined) the value was -0.298.
For `CC(=O)NCCOC(=O)Nc1ccncc1` the value was 0.0114; for `O=C(COc1ccc(OCc2ccccc2)cc1)NC1CCOC1=O` (centres undefined), -0.0067.
The result for `CC(=O)C1=C(O)C(=O)N(CCCO)C1c1ccccc1` (centres undefined) reads -0.134.
In the case of `O=C(CN1C(=O)CSC1=O)NC1CCCCC1`, the z-score turned out to be 0.606.
For `Cc1cccc(C(=O)NC2CC3CCCC(C2)N3S(=O)(=O)c2ccccc2)c1` (centres undefined) the value was 0.082.
`CC(C)NC(=O)Cn1c(=O)cnc2ccccc21` had a z-score of 0.171.
For the compound `C/C(=N/NC(=O)CN1CCN(S(=O)(=O)c2ccc(Br)cc2)CC1)c1ccco1`, the z-score was 0.0136.
`O=C(NCc1cccs1)C1CCN(S(=O)(=O)c2cccs2)CC1` displayed a z-score of -0.232.
On to `CN(CC(=O)Nc1ccc(C#N)cc1)Cc1ccc(Cl)c(Cl)c1`, for which the z-score is 0.0228.
The result for `CC1(C(=O)O)CCC(C(=O)NC2CCCCC2)C1(C)C` (centres undefined) reads -0.238; that for `CC12CCC(C(=O)N3CCc4ccccc43)(CC1=O)C2(C)C` (centres undefined), 0.155.
For `CCc1ccc(C(C)NC(=O)/C=C/c2ccc(Br)cc2)cc1` (centres undefined) the value was -0.0914; for `Cc1cc2c(c(=O)o1)C(C1C=CCCC1)C(C#N)=C(N)O2` (centres undefined), -0.151; for `CC(C)Cn1c(N)c(C(=O)CSc2ccccc2)c(=O)n(C)c1=O`, -0.216.
The result for `CC1(C(=O)NC2CCCC2)CCC(=O)N1CCC1=CCCCC1` (centres undefined) reads 0.294.
As for `COc1ccc(S(=O)(=O)N(CC(=O)N/N=C/c2cccs2)c2cc(C)cc(C)c2)cc1OC`, the z-score stood at 0.0274.
The result for `CCC(CC)C(=O)Nc1cccc(-c2nc3ccccc3o2)c1` reads -0.334; that for `Cc1[nH]n(-c2cccc3ccccc23)c(=O)c1/C=N/NC(=O)c1cccc([N+](=O)[O-])c1`, -0.742.
The result for `Cc1noc(C)c1S(=O)(=O)N(CC(=O)N1CCn2c1nc1ccccc12)c1ccc(C(C)C)cc1` reads -0.204; that for `CN(C)S(=O)(=O)c1ccc(C(=O)Nc2ccc(Cl)cc2)cc1`, 0.118.
Turning to `CSc1nnc2c(n1)OC=Nc1ccccc1-2`, the z-score is -0.139.

The record behind these values is PubChem BioAssay AID488969 (Vanderbilt High Throughput Screening Facility, 2010).
